# Inconclusive results, whose numbers are uncertain, are shown with a selection of clear calls. Potencies of inconclusive entries are left out as doubtful fits. Active and inactive are the calls of the source. The call rests on the fitted dose curve; in most records, active means well fitted inhibition curve with a large enough effect; inconclusive means small, poorly fitted or top-dose-only effect; inactive means flat fitted curve, though single readings scatter.
# System: Trypanosoma brucei pyruvate kinase (TbPYK)
# Assay: qHTS of Trypanosoma Brucei Inhibitors: Orthogonal Assay for Cherry-picked Compounds; further: nearly all actives have a fitted effect of over 75% in size
# Details: recombinant TbPYK, ADP-Glo luminescence, 60 min; activity change, negative = inhibition: at 76.9 µM (top of the series)
# Outline: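 ADP-Glo luminescence end-point, reporting ADP substrate left after TbPYK reaction. ADP 130 uM final; 60 min RT; buffer 50 mM TEA pH 7.2, 100 mM KCl, 10 mM MgCl2, 0.05% BSA, 0.01% Tween-20.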
# On the % scale 0 is the no-effect control and ±100 the full control effect; potency means the concentration at half of the fitted maximal effect; tags describe the fitted curve by direction and shape.
Compound,"activity change, negative = inhibition",Potency
O=c1ccc2c(-c3ccccc3S(=O)(=O)O)c3ccc(O)c(O)c3oc-2c1O,inconclusive: -17.8% [inhibitor],
Cc1c(C)c(C)c(S(=O)(=O)N2CCC3(CC2)OCCO3)c(C)c1C,,inactive
O=c1cc(C(F)(F)F)[nH]c(=S)n1-c1ccccc1,,active: 11.2 µM
COc1ccc(OC)c(S(=O)(=O)Nc2cc3c(cc2N2CCCC2)n(C)c(=O)c(=O)n3C)c1,,"inconclusive [inhibitor, single point]"
Cc1ccc(S(=O)(=O)NNC(=O)C2CCN(S(=O)(=O)c3ccc(C)cc3)CC2)cc1,,inactive
Cc1ccc(S(=O)(=O)NNc2ccccc2)c(C)c1,,"inconclusive [inhibitor, partial curve]"
c1ccc(-c2nc(-c3ccco3)cs2)nc1,,inactive
O=C(Nc1ccccc1)c1ccc2nc(-c3ccco3)c(-c3ccco3)nc2c1,,"inconclusive [inhibitor, partial curve]"
COC(=O)c1ccc(C2Nc3ccc(/C(C)=N/NC(=O)C(OC)c4ccccc4)cc3C3C=CCC32)cc1 (stereo not given),,"inconclusive [inhibitor, full curve]"
COc1cccc(C(=O)Nc2ccc(N3CCCC3)cc2)c1,,inactive

# — PubChem BioAssay AID720584 (National Center for Advancing Translational Sciences (NCATS), 2013)
